System: Gram-positive aerobic and Gram-positive/Gram-negative anaerobic organisms
Experiment: In vitro antibacterial spectrum (in words)
Type: cell-based
Conditions: for effect of acidic medium on activity: acidic media; for antibacterial spectrum: in vitro

Row | SMILES | effect of acidic medium on activity | antibacterial spectrum
1 | Cc1cc(O)c(C(N)=O)c2nc(-c3nc(CO)ncc3O)oc12 [Boxazomycin A] | enhanced activity observed in acidic medium | inhibit growth of aerobic Gram-positive bacteria and anaerobes
2 | Cc1ncc(O)c(-c2nc3c(C(N)=O)c(O)cc(C)c3o2)n1 [Boxazomycin B] | enhanced activity observed in acidic medium | inhibit growth of aerobic Gram-positive bacteria and anaerobes
